From patent US20240247076A1 (SUZHOU ALPHAMAB, published 2024)

What was measured:
[1] = molecular target: T1, recombinant human factor XI (hFXI) (human, UniProt P03951); assay: BLI, antibody captured on sensor, antigen in solution
T1 construct: also called hFXI-Chis; hFXI-CHis

[2] = molecular target: T2, hApple-chis (human, UniProt P03951 fragment); assay: as above
T2 construct: range 1-387; also called happle-chis-biotin

| Binder | Kd [1] | Kd [2] |
| --- | --- | --- |
| huFE5huv4-Ld-Fc (Fc fusion, Humanized VHH fused to human IgG1 Fc; 'Ld' not explained) QVQLVESGGGSVQAGGSLRLSCAASGYTYSFNSMGWFRQAPGKGLEGVSVIYLGSTHYADSVKGRFTISQDNSKNTVYLQMNSLRAEDTAVYYCAADLLEYDGTWFGSTYNYWGQGTLVTVSS[sequence of human IgG1 Fc omitted] | 656 pM | 2.86 pM |
| huFE5huv5-Ld-Fc (Fc fusion, Humanized VHH fused to human IgG1 Fc; 'Ld' not explained) QVQLVESGGGSVQAGGSLRLSCAASGYTYSFNSMGWFRQAPGKGLEGVSVIYLGSTHYADSVKGRFTISQDNSKNTLYLQMNSLKPEDTAVYYCAADLLEYDGTWFGSTYNYWGQGTLVTVSS[sequence of human IgG1 Fc omitted] | 656 pM | 1.56 pM |
| huFE148huv5-Ld-Fc (Fc fusion, Humanized VHH fused to human IgG1 Fc; 'Ld' not explained) QVQLVESGGGSVQAGGSLRLSCAASGYTFNNNFVGWFRQAPGKGLEGVSAIYSLGGSTYYADSVKGRFTISQDNSKNTLYLQMNSLKPEDTAVYYCAGAITWVPPLSHRRYTYWGQGTLVTVSS[sequence of human IgG1 Fc omitted] | 2640 pM | 423 pM |
| huFE148huv4-Ld-Fc (Fc fusion, Humanized VHH fused to human IgG1 Fc; 'Ld' not explained) QVQLVESGGGSVQAGGSLRLSCAASGYTFNNNFVGWFRQAPGKGLEGVSAIYSLGGSTYYADSVKGRFTISQDNSKNTVYLQMNSLRAEDTAVYYCAGAITWVPPLSHRRYTYWGQGTLVTVSS[sequence of human IgG1 Fc omitted] | 2640 pM | 523 pM |
| huFE148huv3-Ld-Fc (Fc fusion, Humanized VHH fused to human IgG1 Fc; 'Ld' not explained) QVQLVESGGGLVQPGGSLRLSCAASGYTFNNNFVGWFRQAPGKEREGVAAIYSLGGSTYYADSVKGRFTISQDNSKNTVYLQMNSLRAEDTAVYYCAGAITWVPPLSHRRYTYWGQGTLVTVSS[sequence of human IgG1 Fc omitted] | 3450 pM | 368 pM |
| huFE13huv4-Ld-Fc (Fc fusion, Humanized VHH fused to human IgG1 Fc; 'Ld' not explained) QVQLVESGGGSVQAGGSLRLSCAASGYTYSMGAMAWFRQAPGKGLEGVSLIATSSGFISYTDSVKGRFTISQDNSKNTVYLQMNSLRAEDTAVYYCAAGTQFSWSPGSYNYWGQGTLVTVSS[sequence of human IgG1 Fc omitted] | 8840 pM | 823 pM |
| huFE13huv6-Ld-Fc (Fc fusion, Humanized VHH fused to human IgG1 Fc; 'Ld' not explained) QVQLVESGGGLVQPGGSLRLSCAASGYTYSMGAMAWFRQAPGKGLEGVSLIATSSGFISYTDSVKGRFTISQDNSKNTLYLQMNSLKPEDTAVYYCAAGTQFSWSPGSYNYWGQGTLVTVSS[sequence of human IgG1 Fc omitted] | 8840 pM | 912 pM |
| huFE13huv3-Ld-Fc (Fc fusion, Humanized VHH fused to human IgG1 Fc; 'Ld' not explained) QVQLVESGGGLVQPGGSLRLSCAASGYTYSMGAMAWFRQAPGKEREGVALIATSSGFISYTDSVKGRFTISQDNSKNTVYLQMNSLRAEDTAVYYCAAGTQFSWSPGSYNYWGQGTLVTVSS[sequence of human IgG1 Fc omitted] | 6840 pM | 930 pM |
| huFE35huv4-Ld-Fc (Fc fusion, Humanized VHH fused to human IgG1 Fc; 'Ld' not explained) QVQLVESGGGSVQAGGSLRLSCTASGFTFDDSDMGWYRQAPGNECELVSTISSDGRGFYADSVKGRFTISQDNSKNTVYLQMNSLRAEDTAVYYCAAGWYGSFCSGLGQGTLVTVSS[sequence of human IgG1 Fc omitted] |  | 1.54 pM |
| huFE35huv3-Ld-Fc (Fc fusion, Humanized VHH fused to human IgG1 Fc; 'Ld' not explained) QVQLVESGGGLVQPGGSLRLSCTASGFTFDDSDMGWYRQAPGNECELVSTISSDGRGFYADSVKGRFTISRDNSKNTVYLQMNSLRAEDTAVYYCAAGWYGSFCSGLGQGTLVTVSS[sequence of human IgG1 Fc omitted] | 9650 pM | < 1 pM |
| huFE56huv2-Ld-Fc (Fc fusion, Humanized VHH fused to human IgG1 Fc; 'Ld' not explained) QVQLVESGGGLVQPGGSLRLSCAASGHTYSSNYCMAWFRQAPGKEREGVAAIYSDGSTSYADSVKGRFTISRDNSKNTLYLQMNSLRAEDTAVYYCAATAYEGSWTGKQPLCLLYEYTYWGQGTLVTVSS[sequence of human IgG1 Fc omitted] | 4210 pM | < 1 pM |
| huFE56huv4-Ld-Fc (Fc fusion, Humanized VHH fused to human IgG1 Fc; 'Ld' not explained) QVQLVESGGGSVQAGGSLRLSCAASGHTYSSNYCMAWFRQAPGKGLEGVSAIYSDGSTSYADSVKGRFTISKDNSKNTLYLQMNSLRAEDTAVYYCAATAYEGSWTGKQPLCLLYEYTYWGQGTLVTVSS[sequence of human IgG1 Fc omitted] | 3970 pM | 1.33 pM |
| huFE56huv3-Ld-Fc (Fc fusion, Humanized VHH fused to human IgG1 Fc; 'Ld' not explained) QVQLVESGGGLVQPGGSLRLSCAASGHTYSSNYCMAWFRQAPGKEREGVAAIYSDGSTSYADSVKGRFTISKDNSKNTLYLQMNSLRAEDTAVYYCAATAYEGSWTGKQPLCLLYEYTYWGQGTLVTVSS[sequence of human IgG1 Fc omitted] | 5970 pM | 2.1 pM |
| huFE56huv6-Ld-Fc (Fc fusion, Humanized VHH fused to human IgG1 Fc; 'Ld' not explained) QVQLVESGGGLVQPGGSLRLSCAASGHTYSSNYCMAWFRQAPGKGLEGVSAIYSDGSTSYADSVKGRFTISKDNSKNTLYLQMNSLKPEDTAVYYCAATAYEGSWTGKQPLCLLYEYTYWGQGTLVTVSS[sequence of human IgG1 Fc omitted] | 3970 pM | 3.45 pM |
| huFE97huv4-Ld-Fc (Fc fusion, Humanized VHH fused to human IgG1 Fc; 'Ld' not explained) QVQLVESGGGSVQAGGSLRLSCTASEFTFDDSDMAWYRQAPGNECELVSTITSDGGTYYADSVKGRFTISRDNSKNTMYLQMNSLRAEDTAVYYCAADQWGSAEGDCTSSYPGGYWGQGTLVTVSS[sequence of human IgG1 Fc omitted] | 2670 pM | < 1 pM |
| huFE97huv6-Ld-Fc (Fc fusion, Humanized VHH fused to human IgG1 Fc; 'Ld' not explained) QVQLVESGGGLVQPGGSLRLSCTASEFTFDDSDMAWYRQAPGNECELVSTITSDGGTYYADSVKGRFTISRDNSKNTLYLQMNSLKPEDTAVYYCAADQWGSAEGDCTSSYPGGYWGQGTLVTVSS[sequence of human IgG1 Fc omitted] | 2670 pM | 1.33 pM |
| huFE97huv3-Ld-Fc (Fc fusion, Humanized VHH fused to human IgG1 Fc; 'Ld' not explained) QVQLVESGGGLVQPGGSLRLSCTASEFTFDDSDMAWYRQAPGNECELVSTITSDGGTYYADSVKGRFTISQDNSKNTMYLQMNSLRAEDTAVYYCAADQWGSAEGDCTSSYPGGYWGQGTLVTVSS[sequence of human IgG1 Fc omitted] | 1980 pM | 1.42 pM |
| huFE97huv5-Ld-Fc (Fc fusion, Humanized VHH fused to human IgG1 Fc; 'Ld' not explained) QVQLVESGGGSVQAGGSLRLSCTASEFTFDDSDMAWYRQAPGNECELVSTITSDGGTYYADSVKGRFTISRDNSKNTLYLQMNSLKPEDTAVYYCAADQWGSAEGDCTSSYPGGYWGQGTLVTVSS[sequence of human IgG1 Fc omitted] | 2670 pM | < 1 pM |

Next, values leading:

| Kd [1] | Kd [2] | Binder |
| --- | --- | --- |
| 456 pM | 1.44 pM | huFE5huv3-Ld-Fc (Fc fusion, Humanized VHH fused to human IgG1 Fc; 'Ld' not explained) QVQLVESGGGLVQPGGSLRLSCAASGYTYSFNSMGWFRQAPGKEREGVAVIYLGSTHYADSVKGRFTISQDNSKNTVYLQMNSLRAEDTAVYYCAADLLEYDGTWFGSTYNYWGQGTLVTVSS[sequence of human IgG1 Fc omitted] |
| 656 pM | < 1 pM | huFE5huv6-Ld-Fc (Fc fusion, Humanized VHH fused to human IgG1 Fc; 'Ld' not explained) QVQLVESGGGLVQPGGSLRLSCAASGYTYSFNSMGWFRQAPGKGLEGVSVIYLGSTHYADSVKGRFTISQDNSKNTLYLQMNSLKPEDTAVYYCAADLLEYDGTWFGSTYNYWGQGTLVTVSS[sequence of human IgG1 Fc omitted] |
| 2640 pM | 487 pM | huFE148huv6-Ld-Fc (Fc fusion) QVQLVESGGGSVQAGGSLRLSCAASGYTFNNNFVGWFRQAPGKGLEGVSAIYSLGGSTYYADSVKGRFTISRDNSKNTLYLQMNSLKPEDTAVYYCAGAITWVPPLSHRRYTYWGQGTLVTVSS[sequence of human IgG1 Fc omitted] |
| 8840 pM | 856 pM | huFE13huv5-Ld-Fc (Fc fusion, Humanized VHH fused to human IgG1 Fc; 'Ld' not explained) QVQLVESGGGSVQAGGSLRLSCAASGYTYSMGAMAWFRQAPGKGLEGVSLIATSSGFISYTDSVKGRFTISQDNSKNTLYLQMNSLKPEDTAVYYCAAGTQFSWSPGSYNYWGQGTLVTVSS[sequence of human IgG1 Fc omitted] |
| 25500 pM | 1.21 pM | huFE35huv2-Ld-Fc (Fc fusion, Humanized VHH fused to human IgG1 Fc; 'Ld' not explained) QVQLVESGGGLVQPGGSLRLSCAASGFTFDDSDMGWYRQAPGNECELVSTISSDGRGFYADSVKGRFTISRDNSKNTLYLQMNSLRAEDTAVYYCAAGWYGSFCSGLGQGTLVTVSS[sequence of human IgG1 Fc omitted] |
| 10200 pM | < 1 pM | huFE35huv5-Ld-Fc (Fc fusion, Humanized VHH fused to human IgG1 Fc; 'Ld' not explained) QVQLVESGGGSVQAGGSLRLSCTASGFTFDDSDMGWYRQAPGNECELVSTISSDGRGFYADSVKGRFTISQDNSKNTLYLQMNSLKPEDTAVYYCAAGWYGSFCSGLGQGTLVTVSS[sequence of human IgG1 Fc omitted] |
| 10200 pM | 3.24 pM | huFE35huv6-Ld-Fc (Fc fusion, Humanized VHH fused to human IgG1 Fc; 'Ld' not explained) QVQLVESGGGLVQPGGSLRLSCTASGFTFDDSDMGWYRQAPGNECELVSTISSDGRGFYADSVKGRFTISRDNSKNTLYLQMNSLKPEDTAVYYCAAGWYGSFCSGLGQGTLVTVSS[sequence of human IgG1 Fc omitted] |
| 3970 pM | 3.21 pM | huFE56huv5-Ld-Fc (Fc fusion, Humanized VHH fused to human IgG1 Fc; 'Ld' not explained) QVQLVESGGGSVQAGGSLRLSCAASGHTYSSNYCMAWFRQAPGKGLEGVSAIYSDGSTSYADSVKGRFTISKDNSKNTLYLQMNSLKPEDTAVYYCAATAYEGSWTGKQPLCLLYEYTYWGQGTLVTVSS[sequence of human IgG1 Fc omitted] |
